# Screen size: about 310,000 compounds; about 14,000 (4.5%) showed an effect of 50% or more. Effects have a minus sign here. The list shows a part of the results.
# Target: human ether-à-go-go-related gene (hERG) potassium channel (human, UniProt Q12809)
# Test: primary screen, population patch clamp on CHO cells stably expressing hERG
# 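Note: peak tail current of the secondary pulse compared with the same well before compound.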
# human ether-à-go-go-related gene (hERG) potassium channel, sequence (Q12809 whole entry, looked up): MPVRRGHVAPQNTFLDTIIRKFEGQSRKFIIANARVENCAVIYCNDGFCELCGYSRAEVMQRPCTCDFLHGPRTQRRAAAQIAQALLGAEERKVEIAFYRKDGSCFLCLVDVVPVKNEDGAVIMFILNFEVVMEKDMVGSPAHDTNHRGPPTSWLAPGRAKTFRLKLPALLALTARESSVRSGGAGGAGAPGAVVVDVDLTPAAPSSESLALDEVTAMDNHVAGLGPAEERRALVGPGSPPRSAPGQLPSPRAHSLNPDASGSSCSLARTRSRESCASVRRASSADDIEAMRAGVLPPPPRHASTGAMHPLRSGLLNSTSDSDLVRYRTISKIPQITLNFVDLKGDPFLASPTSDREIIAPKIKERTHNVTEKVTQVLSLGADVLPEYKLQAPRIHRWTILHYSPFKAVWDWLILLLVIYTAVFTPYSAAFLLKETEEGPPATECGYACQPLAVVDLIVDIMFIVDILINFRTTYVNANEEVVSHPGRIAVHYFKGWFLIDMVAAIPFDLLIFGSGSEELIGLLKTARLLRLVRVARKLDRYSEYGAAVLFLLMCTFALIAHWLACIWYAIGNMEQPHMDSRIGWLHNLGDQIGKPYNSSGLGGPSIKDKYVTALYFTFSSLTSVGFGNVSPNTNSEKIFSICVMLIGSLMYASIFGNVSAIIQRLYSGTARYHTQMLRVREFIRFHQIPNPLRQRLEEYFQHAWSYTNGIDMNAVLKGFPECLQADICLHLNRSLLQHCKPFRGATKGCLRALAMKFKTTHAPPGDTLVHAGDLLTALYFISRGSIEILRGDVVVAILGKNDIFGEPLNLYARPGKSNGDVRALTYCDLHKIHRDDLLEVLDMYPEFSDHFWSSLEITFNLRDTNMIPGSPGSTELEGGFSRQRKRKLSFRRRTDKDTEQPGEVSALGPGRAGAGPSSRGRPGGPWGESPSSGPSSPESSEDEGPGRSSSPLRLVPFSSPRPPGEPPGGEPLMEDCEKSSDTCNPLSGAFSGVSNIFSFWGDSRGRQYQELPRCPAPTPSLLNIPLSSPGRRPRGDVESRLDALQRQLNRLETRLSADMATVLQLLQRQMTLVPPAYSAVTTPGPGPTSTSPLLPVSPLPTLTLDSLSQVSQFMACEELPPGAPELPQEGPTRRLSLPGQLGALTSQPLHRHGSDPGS
row,Structure (SMILES),"hERG current change (%, negative = inhibition) at 10uM [%]"
1,CCCNC(=O)c1c(N)n(-c2ccc(S(N)(=O)=O)cc2)c2nc3ccccc3nc12,2.48
2,COc1cc(-c2cc(-c3ccccc3)nc(SCC(=O)O)c2C#N)cc(OC)c1OC,28.3
3,CCN(CC)c1ccc(/C=C2\SC(=O)N(C(C)C)C2=O)o1,11.2
4,CC(=O)N1CCc2cc(S(=O)(=O)CCC(=O)NCc3ccco3)ccc21,12.5
5,CN1CCC(N(C)S(=O)(=O)c2ccc(NC(=O)COc3cccc(Cl)c3)cc2)CC1,-29.7
6,CC(C)(C)NC(=O)Cn1c(SCC(=O)N2CCCCCC2)nc2ccccc21,2.81
7,Fc1ccc(CSc2nncn2NCc2ccc3c(c2)OCO3)cc1,-12.6
8,Cc1ccc(CN(Cc2ccccc2)C(=S)NCC(=O)NCc2cccnc2)o1,-29.7
9,O=C(N/N=C/c1ccc[nH]1)c1ccccc1O,41.9
10,CCCCC(O)(CCCC)C(=O)NN(C(=O)OCC)c1ccccc1,1.32
11,Cc1ccc(C)c(N2CCN(S(=O)(=O)c3cn(C)cn3)CC2)c1,-21.8
12,CCN1C(=O)CC(N2CCC(Cc3ccccc3)CC2)C1=O (stereo not drawn),-2.52
13,CCc1nc(SCC#N)c(C#N)cc1C,7.53
14,O=C(CN1C(=O)NC(Cc2c[nH]c3ccccc23)C1=O)Nc1ccc(Br)cc1F (stereo not drawn),5.58
15,CCC(=O)N(C)CCc1cc2c(c(OC)c1/C=N/NC(=O)c1ccc(Br)cc1)OCO2,-44.1
16,N#Cc1c(N)nc2c3c(sc(=N)c2c1N)NC(=O)CC3c1c(F)cccc1Cl (stereo not drawn),-15.7
17,O=C(CCSCc1ccccc1Cl)NC1CCCC1,-4.08
18,O=C(Nc1nc2n(n1)C(c1ccc(F)cc1)CC(c1ccccc1)N2)c1ccco1 (stereo not drawn),-57.4
19,COCCNC(=O)CN1C2CCC1CC(O)(c1cccnc1)C2 (stereo not drawn),0.682
20,Cc1nc2sc(C)c(C)c2c(=O)o1,11.1
21,CC(OC(=O)c1ccccc1O)C(=O)Nc1cccc(Cl)c1 (stereo not drawn),-9.12
22,O=[N+]([O-])c1ccc(N2CCOCC2)cc1NCc1ccccc1,-3.2
23,COc1cccc(C2C(C(N)=O)=C(C)Nc3nc(-c4ccccc4Cl)nn32)c1 (stereo not drawn),-20.6

row,Structure (SMILES),"hERG current change (%, negative = inhibition) at 10uM [%]"
1,Cc1nc(NC(=O)c2ccc(OCC(C)C)cc2)sc1Cc1ccc2c(c1)OCO2,28.3
2,COc1ccc(-c2cc(C(=O)Nc3cc(C)ccc3O)no2)cc1,16.4
3,CCC(=O)N1N=C2CC(C)(C)OCC2C1c1ccccc1 (stereo not drawn),6.62
4,O=C(CSc1ccc2nnc(-c3ccccn3)n2n1)Nc1ccc2c(c1)OCO2,-33.7
5,CN(Cc1ccccc1)C(=O)CCC1CCN(C(=O)c2ccccc2C(F)(F)F)CC1,8.38
6,CCOC(=O)c1cc(-c2ccc(/C=C3/C(=O)NC(=O)C(C#N)=C3C)o2)ccc1Cl,9.77
7,COc1ccc(CNC(=O)COC(=O)c2cnccn2)cc1,10.7
8,c1ccc(CC2CCN(c3nc4ccccc4n4cnnc34)CC2)cc1,4.3
9,CCCCNc1ccccc1C(=O)OCC(=O)Nc1ccc(S(N)(=O)=O)cc1,-4.61
10,CCOc1ccc(-n2c(SCC(=O)Nc3ccc(Br)cc3)nc3n[nH]c(C)c3c2=N)cc1,15
11,CCc1noc(C)c1C(=O)Nc1ccc(C(F)(F)F)cc1,2.37
12,CC1CN(C(=S)Nc2ccccc2F)CC(C)O1 (stereo not drawn),13.9
13,Cc1ccc(S(=O)(=O)NC(N)=NCCc2ccccc2)cc1C,-3.72
14,CCCCn1c(-c2ccc(Cl)c(Cl)c2)nc2cc3[nH]c(=O)c(C(C)C)nc3cc21,-2.23
15,COc1ccc(/C(N)=N/OC(=O)CC2CCCCC2)cc1,7.9
16,COc1ccc(CCC(C)Nc2cccc(C)c2)cc1 (stereo not drawn),4.48
17,O=C(NCCc1ccccc1)c1ccc2c(c1)OCO2,15.4
18,COc1ccc(CC(=O)OCC(=O)Nc2ccc3c(c2)OCO3)cc1,-9.79
19,CC(=O)OCC(=O)C1CCC2C3CC=C4CC(O)CCC4(C)C3CCC12C (stereo not drawn),22.1
20,Cn1ncc(Br)c1NC(=O)Nc1ccc(Cl)cc1,16.7
21,COCCN(C(=O)COC(=O)CCCOc1ccc(OC)cc1)c1c(N)n(Cc2ccccc2)c(=O)[nH]c1=O,4.6
22,CCCNC(=O)c1ccc(N2CCC3(CC2)CC(c2cccc(Br)c2)=NO3)c([N+](=O)[O-])c1,-14.2
